About 14,000 (4.5%) of roughly 310,000 compounds showed an effect of 50% or more. Effects have a minus sign here. The list shows a part of the results.
These compounds were tested against human ether-à-go-go-related gene (hERG) potassium channel (human, UniProt Q12809) (assay: primary screen, population patch clamp on CHO cells stably expressing hERG).
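Note: peak tail current of the secondary pulse compared with the same well before compound.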

Sequence of human ether-à-go-go-related gene (hERG) potassium channel (Q12809 whole entry, looked up): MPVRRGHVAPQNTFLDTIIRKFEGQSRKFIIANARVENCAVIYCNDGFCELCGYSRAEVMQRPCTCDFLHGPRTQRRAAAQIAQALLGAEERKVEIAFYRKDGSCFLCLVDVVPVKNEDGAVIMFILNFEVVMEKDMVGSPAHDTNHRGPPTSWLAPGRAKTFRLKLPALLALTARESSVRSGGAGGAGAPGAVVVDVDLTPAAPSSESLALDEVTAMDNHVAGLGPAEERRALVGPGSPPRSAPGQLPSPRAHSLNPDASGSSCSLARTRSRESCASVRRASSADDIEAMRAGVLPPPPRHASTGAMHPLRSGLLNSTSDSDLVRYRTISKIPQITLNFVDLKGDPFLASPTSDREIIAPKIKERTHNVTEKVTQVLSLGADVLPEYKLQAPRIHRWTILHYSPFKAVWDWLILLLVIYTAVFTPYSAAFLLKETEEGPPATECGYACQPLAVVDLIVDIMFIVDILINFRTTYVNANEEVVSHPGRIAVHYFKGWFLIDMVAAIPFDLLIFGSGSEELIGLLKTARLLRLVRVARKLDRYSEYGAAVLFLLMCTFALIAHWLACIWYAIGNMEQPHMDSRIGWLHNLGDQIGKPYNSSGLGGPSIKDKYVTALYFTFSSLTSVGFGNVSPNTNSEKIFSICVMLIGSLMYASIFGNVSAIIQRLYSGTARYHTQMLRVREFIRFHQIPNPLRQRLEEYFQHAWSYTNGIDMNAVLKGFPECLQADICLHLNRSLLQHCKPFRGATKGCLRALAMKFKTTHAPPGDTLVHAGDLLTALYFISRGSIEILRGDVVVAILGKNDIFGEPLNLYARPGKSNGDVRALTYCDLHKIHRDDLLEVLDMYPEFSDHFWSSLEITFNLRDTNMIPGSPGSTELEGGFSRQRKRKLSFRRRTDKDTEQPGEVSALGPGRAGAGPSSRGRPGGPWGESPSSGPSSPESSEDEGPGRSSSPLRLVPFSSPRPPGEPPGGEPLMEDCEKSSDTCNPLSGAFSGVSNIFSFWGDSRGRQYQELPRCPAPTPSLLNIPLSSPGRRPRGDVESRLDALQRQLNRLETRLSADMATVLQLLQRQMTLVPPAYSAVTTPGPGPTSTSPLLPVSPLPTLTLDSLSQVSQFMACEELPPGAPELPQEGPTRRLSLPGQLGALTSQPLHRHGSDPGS

Row | SMILES | hERG current change (%, negative = inhibition) at 10uM [%]
1 | O=C(Nc1ccccc1)C1CCN(C(=O)c2ccco2)CC1 | 7.85
2 | CCOc1cc(C2NC(=O)c3ccccc3O2)ccc1OC(C)C (stereo not shown) | 10.1
3 | FC(F)(F)c1cnc(N2CCN(C(=S)NCc3ccccc3)CC2)c(Cl)c1 | -11.3
4 | CC1=NN(c2nc(-c3ccc(C)cc3)cs2)C(=O)C1N=Nc1cccc(O)c1 (stereo not shown) | 7.93
5 | COC(=O)c1ccc(OCCn2cnc3ccccc3c2=O)cc1 | -11.2
6 | FC(F)(F)c1cc(Nc2ccccc2)nc(-c2ccccn2)n1 | 12.2
7 | NC(=O)c1oc2ccccc2c1NC(=O)CS(=O)(=O)c1ccccc1 | 6.49
8 | Cc1ccc(NC(=O)CSc2nc(NS(=O)(=O)c3ccccc3)cc(=O)[nH]2)cc1 | 8.75
9 | C/C(=N/Nc1ccnc2cc(Cl)ccc12)c1ccc(O)cc1 | -6.2
10 | CCCc1nc2c(ccc3ccccc32)cc1CC | 7.5
11 | COc1ccc(-c2csc(C3=C(O)CN(Cc4ccc(S(N)(=O)=O)cc4)C3=N)n2)cc1OC | -10.7
12 | C=CCNC(=O)COC(=O)c1ccc(Cl)c(S(=O)(=O)N(Cc2ccccc2)c2ccccc2)c1 | -0.708
13 | CCOc1ccc(NC(=O)c2ccc(NC(=O)COC(=O)Cc3ccc(OC)cc3)cc2)cc1 | 20
14 | COc1ccccc1C(CNC(=O)CCNC(=O)c1ccccc1Cl)N1CCCC1 (stereo not shown) | -6.32
15 | Cc1ccc(-c2nc3cc(N)ccc3o2)c(C)c1 | 11.6
16 | COc1ccc(C(c2c(O)cc(C)oc2=O)c2c(O)cc(C)oc2=O)cc1 | 4.88
17 | CC1Oc2ccccc2N(Cc2ccccc2F)C1=O (stereo not shown) | -9.36
18 | CC(C)N1CC(C(=O)Nc2ccc(Cl)c([N+](=O)[O-])c2)CC1=O (stereo not shown) | 7.99
19 | Cc1ccccc1OCC(=O)NCCNC(=O)c1ccncc1 | 8.43
20 | O=C(C1CC1)N1CCc2cc(S(=O)(=O)N3CCN(c4ccccc4)CC3)ccc21 | 15.8
21 | COc1ccccc1NC(=O)C(C)OC(=O)C1COc2ccccc2O1 (stereo not shown) | 3.67
22 | O=C(NCc1cccc(Cl)c1)c1cccc(S(=O)(=O)N2CCCC2)c1 | -15.3
23 | OCc1ccnc2oc3ccccc3c12 | 9.87
24 | C=CC(C)n1c(Br)nc2c1c(=O)[nH]c(=O)n2C (stereo not shown) | -8.53
25 | O=C(CCCN1C(=O)c2ccccc2C1=O)N1CCN(c2ccccn2)CC1 | -25.9
26 | O=C1OCCC1Sc1nc2cc(Cl)ccc2n1Cc1ccccc1 (stereo not shown) | -63.9
27 | COCCNC(=O)/C(C#N)=c1\s/c(=C\c2ccccc2OC(F)F)c(=O)n1Cc1ccccc1 | 11.8
28 | Cc1ccc(OCCC(=O)OCC(=O)Nc2ccc(F)cc2)cc1 | 20.2

Row | SMILES | hERG current change (%, negative = inhibition) at 10uM [%]
29 | Cc1cc(C)c2[nH]c(=O)c(C(c3nnnn3C(C)(C)C)N3CCN(C(=O)c4ccco4)CC3)cc2c1 (stereo not shown) | -47
30 | Clc1ccc(-c2ccccc2)nn1 | 3.33
31 | O=[N+]([O-])c1ccc(O)c(/C=N/Nc2ccc(Cl)nn2)c1 | 20.2
32 | CN(C(=O)COC(=O)CSc1ccc(C(N)=O)cc1[N+](=O)[O-])C1CCCCC1 | -4.6
33 | CN(C)CCNC(=O)COc1cccc2c1OC(C)(C)C2 | 59.4
34 | COc1ccc(C2Nc3ccccc3C(=O)N2c2ccc(Cl)cc2)cc1Cn1cc([N+](=O)[O-])cn1 (stereo not shown) | -11.1
35 | Cc1ccc(C(=O)NCCCn2ccnc2)cc1C | 8.83
36 | CCOCCn1c(CN2CCN(c3cccc(Cl)c3)CC2)nc2c1c(=O)n(C)c(=O)n2C | -55
37 | CCOc1ccccc1N1CC(C(=O)NCCOc2ccccc2OC)CC1=O (stereo not shown) | -6.01
38 | COc1ccc(Nc2nc(N)c([N+](=O)[O-])c(N3CCCC3)n2)cc1 | -22.8
39 | Cc1ccc(S(=O)c2ccc(NC(=O)C3CC3)cc2C#N)cc1 (stereo not shown) | -20.9
40 | CC(C)n1c(=N)c(C(=O)NCCc2ccccc2)cc2c(=O)n3ccccc3nc21 | -75.1
41 | O=C(CSc1nnc(Cn2c(=O)sc3ccccc32)n1-c1ccccc1)Nc1nccs1 | -3.47
42 | Cc1ccc(N(C)S(=O)(=O)c2ccc3[nH]cc(C(=O)NCCCN4CCOCC4)c(=O)c3c2)cc1C | -16.5
43 | C=C(C)c1cccc(C(C)(C)NC(=O)N(Cc2ccccc2)Cc2ccco2)c1 | 6.19
44 | Cc1ccc(Cn2ccc(NC(=O)c3cc(-c4ccccc4)on3)n2)cc1 | 5.75
45 | COc1c2ccoc2c(OC[C@@H](O)C(C)(C)OC)c2oc(=O)ccc12 | 10.6
46 | CCN1C(=O)S/C(=C/c2c(OCc3ccc(C(=O)O)cc3)ccc3ccccc23)C1=O | 8.07
47 | Cc1cc(OCC(=O)NCCc2c[nH]c3ccccc23)c2c(C)cc(=O)oc2c1 | 9.39
48 | COC(=O)c1sccc1NC(=O)/C=C/C(=O)O | 16.1
49 | COc1ccccc1CNC(=O)c1cc2ccccc2oc1=O | 0.373
50 | Cc1ccc(S(=O)(=O)n2cnc(C)c2)cc1 | 0.762
51 | CCOC(=O)c1c(NC(=O)CSc2nnnn2-c2ccc(OC)cc2)sc(C)c1C | 12.9
52 | O=C(COC(=O)c1ccccn1)Nc1cccc(Cl)c1 | 13.9
53 | COc1ccc(NS(=O)(=O)c2ccc(NC(C)=O)cc2)c(OC)c1 | 0.195
54 | O=C(NCc1ccccc1)C1=C[C@H](c2ccc(Br)cc2)C[C@H](OCCCCO)O1 | -9.7
55 | CCc1ccccc1NC(=S)N(CCN1CCCCCC1)Cc1ccco1 | -46.8
